Measurements from PubChem BioAssay AID1466 (National Center for Advancing Translational Sciences (NCATS), 2008).
About 10 (0.005%) of roughly 200,000 compounds were called active. The inconclusive results got no clear call from the source; some entries with a clear call stand among them for comparison. The call rests on the fitted dose curve; in most records, active means well fitted inhibition curve with a large enough effect; inconclusive means small, poorly fitted or top-dose-only effect, or effect the other way, or another doubt; inactive means no such curve, though single readings can be large or run the other way. Potencies beside an inconclusive call are fits to weak or partial responses and may not hold up.

Target: Lysosomal alpha-glucosidase (Homo sapiens) (UniProt P10253)
Test: qHTS Assay for Inhibitors of Human alpha-Glucosidase as a Potential Chaperone Treatment of Pompe Disease;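 on activity change, negative = inhibition: plate controls were uninhibited enzyme wells for no effect and no-enzyme background for full effect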
Details: purified human GAA, 4-MU-alpha-glucoside fluorescence; activity change, negative = inhibition: at 76.9 µM (top of the series) unless noted
Outline: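 Fluorogenic assay: 4 nM human alpha-glucosidase with 400 uM 4-methylumbelliferyl-alpha-D-pyranoside in 50 mM citrate/phosphate, 0.005% Tween-20, pH 5.0, 20 min at room temperature. Compounds tested up to 77 uM; AC50 from Hill fits.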
Potency means the concentration at half of the fitted maximal effect; tags describe the fitted curve by direction and shape.

Structure (SMILES)	activity change, negative = inhibition	Potency
COc1ccc(NC(=O)c2oc3ccccc3c2NC(=O)C2CCCO2)cc1OC (stereo not given)	inconclusive: -15.4% [inhibitor]	–
CCn1c(SCC(=O)N2CCCc3ccccc32)nnc1-c1c[nH]c2ccccc12	–	inconclusive: 44.7 µM [inhibitor, single point]
O=[N+]([O-])c1ccc2nc(-[n+]3c(-c4ccccc4)cc(-c4ccccc4)cc3-c3ccccc3)[nH]c2c1	–	inconclusive: 56.2 µM [inhibitor, single point]
CCNC(=O)/C(C#N)=C/c1c(N2CCN(Cc3ccc4c(c3)OCO4)CC2)nc2c(C)cccn2c1=O	–	inconclusive: 12.6 µM [activator, partial curve]
CCN1CCN(c2cc3c(nn2)Oc2ccccc2N3C)CC1	–	inconclusive: 25.1 µM [activator, partial curve]
CCCCS(=O)(=O)c1sc2nc(C)cc(C)c2c1N	–	inactive
COc1ccc(/C=N/NC(=O)Nc2ccc3nsnc3c2)c(OC)c1	inconclusive: 16.6% [activator]	–
CC1CC(C)CN(C(=O)COC(=O)CNS(=O)(=O)/C=C/c2ccccc2)C1 (stereo not given)	inconclusive: -19.7% [inhibitor]	–
C=CCNc1sc(C(=O)C(C)(C)C)c(N)c1C#N	–	inconclusive: 10 µM [inhibitor, single point]
CCOC(=O)COc1c(Cl)cc(C2NC(=S)NC(c3ccccc3)=C2C(C)=O)cc1OC (stereo not given)	inconclusive: -18.8% [inhibitor]	–
COC(=O)c1ccccc1NC(=O)c1ccc2nccnc2c1	–	inconclusive: 56.2 µM [inhibitor, single point]
CCN(CC)S(=O)(=O)c1ccc(C(=O)OCn2nnc3ccccc3c2=O)cc1	–	inconclusive: 56.2 µM [inhibitor, single point]
CSC1=NC(=O)/C(=C/c2ccc(SC)cc2)S1	–	inconclusive: 12.6 µM [inhibitor, partial curve]
COCCNc1nc(N)c([N+](=O)[O-])c(NCCO)n1	inconclusive: -15.1% [inhibitor]	–
CCOc1ccc(C(=O)NC(=S)N(Cc2ccccc2)Cc2ccccc2)cc1	inconclusive: -16.6% [inhibitor]	–
O=S(=O)(Nc1ccc2nc(-c3ccco3)[nH]c2c1)c1ccccc1	–	inconclusive: 7.08 µM [inhibitor, single point]
CCCCC1OC2(C)OC(=N)C1(C#N)C(C#N)(C#N)C2c1ccccc1 (stereo not given)	–	inconclusive: 39.8 µM [activator, single point]
O=C(CSc1nnc(CCCN2C(=O)c3cccc4cccc(c34)C2=O)n1-c1ccccc1)N1CCCCC1	–	inconclusive: 2 µM [inhibitor, full curve]
COc1ccc(COc2ccsc2C(=O)Nc2ccc(Cl)cc2)cc1	–	inconclusive: 12.6 µM [inhibitor, single point]
CC(Sc1nnc(Cc2cccs2)n1C1CCCCC1)C(=O)NCc1ccco1 (stereo not given)	–	inconclusive: 11.2 µM [inhibitor, single point]

Structure (SMILES)	activity change, negative = inhibition	Potency
COc1ccc(CCN2CC(C(=O)NCc3ccco3)CC2=O)cc1OC (stereo not given)	–	inconclusive: 8.91 µM [inhibitor, full curve]
CCN(C(=O)c1coc(=O)c(Br)c1)c1ccc2c(c1)OCO2	–	inconclusive: 22.4 µM [activator, partial curve, poor fit]
Cc1ccccc1CSc1nc2n(n1)C(c1cccs1)C1=C(CCCC1=O)N2 (stereo not given)	–	inconclusive: 35.5 µM [activator, partial curve]
CCOC(=O)c1cc(CC)sc1NC(=O)COc1ccc2c(C)cc(=O)oc2c1	–	inconclusive: 31.6 µM [activator, single point]
O=[N+]([O-])c1c(NCCO)cc(Sc2nc3ccccc3s2)c2nonc12	–	inconclusive: 0.199 µM [inhibitor, full curve, poor fit]
CCOc1cc(CNCCSc2nnnn2C)cc(Br)c1OCc1ccccc1	–	inconclusive: 0.178 µM [inhibitor, full curve, poor fit]
CC(OC(=O)c1snc(C(=O)NC2CCCCC2)c1N)C(=O)NC1CCCCC1 (stereo not given)	inconclusive: 50.2% [activator]	–
COc1cc2nc(/C=C/c3cc(OC)c(OC)c(OC)c3)sc2cc1SC	–	inconclusive: 39.8 µM [activator, partial curve]
O=C(c1ccc2c(=O)n(-c3ccccc3)c(=O)[nH]c2c1)N1CCCCC1	–	inconclusive: 22.4 µM [activator, partial curve]
CCOc1cc(C(=O)Nc2c3c(nn2C(C)(C)C)CS(=O)C3)cc(OCC)c1OCC (stereo not given)	–	inconclusive: 11.2 µM [inhibitor, single point]
Cc1ccc(NCc2nnc(SCC(=O)Nc3nnc(C)s3)n2C)cc1	–	inconclusive: 35.5 µM [activator, single point]
O=C(NNC(=S)NCc1ccccc1)c1cccc([N+](=O)[O-])c1	–	inconclusive: 12.6 µM [activator, single point]
N#CC1=C(N)N(c2ccccc2C#N)C2=C(C(=O)CCC2)C1c1ccsc1 (stereo not given)	–	inconclusive: 28.2 µM [inhibitor, partial curve, poor fit]
Cc1cccc(N2CCN(C(=O)Cc3c(C(=O)O)[nH]c4ccc(Cl)cc34)CC2)c1C	–	inconclusive: 28.2 µM [inhibitor, single point]
O=S(=O)(Nc1ccc(Cl)nn1)c1ccccc1	–	inconclusive: 50.1 µM [inhibitor, single point]
COc1ccc(Cn2c(=O)sc3ccccc32)cc1	–	inconclusive: 50.1 µM [inhibitor, single point]
Cc1ccc(S(=O)(=O)Oc2ccccc2/C=N/N=C(N)N)cc1	inconclusive: -6.41% [inhibitor] [at 15.4 µM]	–
COc1ccc(C=C(C(C)=O)C(C)=O)cc1OC	–	inconclusive: 1 µM [inhibitor, single point]
N#Cc1ccc(CO/N=C/c2ccccc2)cc1	–	inconclusive: 56.2 µM [inhibitor, single point]
COC(=O)c1c(NC(=O)CN2CCN(Cc3ccc4c(c3)OCO4)CC2)sc(C)c1C	–	inconclusive: 56.2 µM [inhibitor, single point]
